54 compounds from ChEMBL document CHEMBL4888484, “Replenishing the malaria drug discovery pipeline: Screening and hit evaluation of the MMV Hit Generation Library 1 (HGL1) against asexual blood stage Plasmodium falciparum ,using a nano luciferase reporter read-out” (2022) can be followed below.

Structures are written as SMILES. In all, about 150,000 compounds went through this assay and about 540 (0.36%) showed an effect of 50% or more. The list shows a part of the results.

The test system of the assay is Plasmodium falciparum. Description: Primary screen in NF54 nanoGlo assay, in single point, at 2uM, 72h; a lower Z score goes with more inhibition. The assay is classed as functional, Erythrocyte. The following applies: timepoint 72 hour.
`COc1cnc(NC(=O)N[C@H](c2ccncc2)C2CC2)s1`: the “% Inhibition” value was -3% and the Z score is given as 0.67.
The matching figures for `Cc1ccccc1[C@H]1CCCN(C(=O)CCn2nnnc2CN2CCOCC2)C1`: -13% and 1.49.
As to `COc1ccc(NC(=O)c2ccccc2Nc2nc(-c3ccccc3)c3cc(Br)ccc3n2)cc1`, the “% Inhibition” value is reported as -13% and the Z score amounted to 2.03.
Taken in the same sequence, the figures for `O=C(Nc1ccc(-c2ccn[nH]2)cc1)N[C@H]1CC[C@H](O)CC1` were -10% and 1.59.
Taken in the same sequence, the figures for `COCc1ccc(C(=O)N[C@@H](C)c2nc(C)no2)s1` were -5% and 1.12.
On to `C[C@@H](Cc1ccco1)NS(=O)(=O)N(C)C`, for which the “% Inhibition” value was -4% and the Z score was found to be 0.52.
Taken in the same sequence, the figures for `O=C(CN1CCC(F)(F)[C@@H](CO)C1)NCc1ccc(Cl)s1` were -6% and 0.75.
`Cn1cc(S(=O)(=O)N(c2ccccc2)C2CCCC2)cn1`: the “% Inhibition” value was 8% and the Z score was -1.58.
The matching figures for `CCN(CC)C(N)=NCc1cc(Cl)c2c(c1)OCCO2`: -10% and 1.01.
Taken in the same sequence, the figures for `O=C1N[C@H]2C[C@@H](C(=O)NC[C@H]3O[C@H](CCOc4cc(C5CCCC5)ccc41)CC[C@@H]3O)N(Cc1ccc(Cl)c(F)c1)C2` were 33% and -3.78.
Take `COc1ccc(NC(=O)Cc2csc(-n3nc(C)c(Cl)c3C)n2)cc1`: the “% Inhibition” value is -20% and the Z score is given as 3.7.
Taken in the same sequence, the figures for `CCOC(=O)NCCC(=O)N[C@@H](C)c1ccncc1` were -9% and 1.44.
For the compound `CC(=O)N1CCCN(c2ccc3nnc(C(F)(F)F)n3n2)CC1`, the “% Inhibition” value is -3% and the Z score is 0.24.
Taken in the same sequence, the figures for `CC[C@@H](O)CNC(C)c1ccc(Cl)s1` (stereo partly drawn) were 1% and -0.1.
`Cc1c(C)c(C(=O)N[C@@H](C)c2ccccc2)n(Cc2ccccc2F)c1C`: the “% Inhibition” value was -11% and the Z score turned out to be 1.43.
Consider `CNCCN1C(=O)CC[C@@H]2CN(c3nc4ccccc4s3)CC[C@@H]21`, for which the “% Inhibition” value came out at 1% and the Z score was -0.17.
The matching figures for `O=S(=O)(c1ccccc1)N1CCN(C2CCCCCC2)CC1`: -3% and 0.37.
Turning to `CCOc1ccc2ccccc2c1CNc1cnn(CC(F)F)c1`, the “% Inhibition” value is on record as -14% and the Z score was determined as 2.12.
With `OCC(CNc1ccncc1Br)C1CCOC1` (stereo not drawn), the “% Inhibition” value was -19% and the Z score was 1.76.
Taken in the same sequence, the figures for `O=C(COc1ccccc1)Nc1ccc(-c2cn3ccccc3n2)cc1` were -6% and 0.74.
With `O=C(NCCCc1cnoc1)OCC1CCCCC1`, the “% Inhibition” value is -1% and the Z score came to 0.25.
Taken in the same sequence, the figures for `CCCS(=O)(=O)N[C@H]1CCN(C(=O)Cc2c(C)nn(-c3ccc(Cl)c(Cl)c3)c2C)C1` were -3% and 0.33.
For the compound `COc1ccccc1-n1nc(Cc2ccccc2)n(CC(=O)NCC2CC2)c1=O`, the “% Inhibition” value worked out at 1% and the Z score was -0.08.
The matching figures for `COc1cc(-c2cc(C(=O)N3CC[C@H](n4nccn4)C3)[nH]n2)cc(OC)c1OC`: -10% and 1.35.
On to `CO[C@H]1CS(=O)(=O)C[C@@H]1Nc1nc(C)cc(C)c1C#N`, for which the “% Inhibition” value was -10% and the Z score is 1.84.
For `CCOc1ccc(C(=O)c2ccccc2C(=O)N2CC[C@H](N)C2)cc1OCC`, the “% Inhibition” value was -4% and the Z score was determined as 0.48.
Taken in the same sequence, the figures for `O=C(NCCOC1CCCCC1)c1ccncc1Br` were -2% and 0.3.
The matching figures for `CCc1nccn1CCCNc1ncncc1C(=O)O`: -13% and 1.31.
Taken in the same sequence, the figures for `NC(=O)CN1CCCN(C(=O)c2cc(-c3ccccc3)cs2)CC1` were 2% and -0.21.
As for `O=C(CCn1nnc2ccccc21)N1[C@H]2CCNC[C@@H]1CC2`, the “% Inhibition” value is listed as -5% and the Z score is 0.66.
Taken in the same sequence, the figures for `O=C(Nc1cnn(-c2ncc(N3CCCCC3)cn2)c1)c1ccncc1` were 2% and -0.32.
The matching figures for `CC(=O)NC(C)(C)C[C@H](C)NCc1nc(C)cc(C)n1`: -13% and 2.15.
As to `Cc1cccc(C)c1OCC(=O)Nc1ccc(-c2nc3cc4ccccc4cc3[nH]2)cc1`, the “% Inhibition” value amounted to 49% and the Z score was -5.57.
Turning to `N#CC1(CS(=O)(=O)N[C@H](c2cc(F)ccc2F)C2CC2)CC1`, the “% Inhibition” value is given as 0% and the Z score was 0.05.
The matching figures for `CCn1cnnc1CNS(=O)(=O)c1ccc(C2CCCCC2)cc1`: -10% and 1.59.
Take `CC[C@@H](Cc1ccccc1)NC(=O)CN(C)S(=O)(=O)c1ccc2c(c1)c(=O)n(C)c(=O)n2C`: the “% Inhibition” value is recorded as -11% and the Z score is 1.35.
The matching figures for `Cn1c(Cl)cnc1CN1CCC(C(=O)NCc2ccccc2)CC1`: -4% and 0.68.
Consider `Cc1nc(C)c(Br)c(NC[C@@H](O)CO)n1`, for which the “% Inhibition” value is given as -7% and the Z score is reported as 0.82.
For the compound `Cc1cnccc1N1CCC[C@@]2(CCC(=O)N(Cc3ccccn3)C2)C1`, the “% Inhibition” value is on record as -5% and the Z score is 0.93.
`COc1ccc2c(c1)CCCN(c1ccncc1C#N)C2`: the “% Inhibition” value was -8% and the Z score was 1.27.
For `O=S(=O)(Cc1cc(Cl)ccc1F)Nc1noc(C2CC2)n1`, the “% Inhibition” value was -4% and the Z score was determined as 0.76.
Taken in the same sequence, the figures for `Cc1ccccc1N1CCN(c2ncc3c(=O)n(Cc4ccccc4F)c(=O)[nH]c3n2)CC1` were 18% and -2.
The matching figures for `O=S1(=O)NC(CN2CCOc3cc(F)ccc32)=Nc2ccccc21`: -2% and 0.34.
For `O=C(NCCc1nc(-c2cccs2)c[nH]1)c1ccsc1`, the “% Inhibition” value is given as -9% and the Z score turned out to be 1.06.
For `Cc1nccc(C(=O)NCc2c(C)cc(C)[nH]c2=O)n1`, the “% Inhibition” value is -3% and the Z score is 0.49.
Take `CC(C)Cn1c(C(=O)NC(C)C)nnc1N1CCC[C@H](C(N)=O)C1`: the “% Inhibition” value was 8% and the Z score is -0.84.
Taken in the same sequence, the figures for `CCOC(=O)c1ccc(NC(=O)c2cc(C)nc3c2c(=O)n(C)c(=O)n3C)cc1` were -7% and 0.95.
Taken in the same sequence, the figures for `Cc1ccccc1Cn1ccn2nc(-c3ccc4c(c3)OCO4)cc2c1=O` were -10% and 1.27.
For the compound `CN(Cc1ccc2nccnc2c1)C(=O)[C@@H]1CC(=O)Nc2ccc(F)cc21`, the “% Inhibition” value is -8% and the Z score was determined as 1.59.
As for `Cc1cc(N2CCN(Cc3cc(C)on3)CC2)c2cc(OC(F)(F)F)ccc2n1`, the “% Inhibition” value is given as -1% and the Z score came out at 0.16.
On to `Cc1ccc2cc(CO)c(N3CCC([C@H](C)N4CCCC4)CC3)nc2c1`, for which the “% Inhibition” value is -14% and the Z score is given as 1.73.
Taken in the same sequence, the figures for `CCOC(=O)C1C2CCC(C2)N1S(C)(=O)=O` (stereo not drawn) were -5% and 0.57.
Taken in the same sequence, the figures for `COc1ccc(CNC(=O)c2ccccc2-c2nnn[nH]2)c(OC)c1` were -5% and 0.93.
Taken in the same sequence, the figures for `Cc1ccc(S(=O)(=O)N2CCc3nc(NC(=O)c4cccnc4)sc3C2)cc1` were 24% and -2.26.
